This is one part of the list.

The subject of this experiment is PfSIP2 AP2 domain 1 (GST-tagged). Nature of the experiment: gcPBM binding intensity (ln(normalized median fluorescence intensity)); higher = stronger DNA binding. The procedure, abridged: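 Binding intensity values are the highest Masliner-normalised natural-log median intensity among replicate spots of either probe orientation. The binding step lasted 1 h in 1× PBS with 1% milk, 0.2 mg/ml BSA, 0.5% salmon testes DNA and 0.03% Triton X-100, using GST-tagged P. falciparum DNA-binding domains expressed in E. coli on an Agilent 4 × 180k array of primer-extended double-stranded 36-bp intergenic genomic probes plus negative controls. Alexa488 anti-GST antibody and a 488 nm scan detected bound protein.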
For the sequence “TTTTTAAATATAAACAAAAAAAAAAAATATATCAAT [XGTACX_negctrl_site328]”, the “gcPBM binding intensity (ln)” value came out at 6.79. “ATTTTTATTTTTATTTGTACTTATATATTCTTAAGC [XGTACX_site4122]”: the “gcPBM binding intensity (ln)” value came to 7.12. Consider “AATACCCAAGGACACACACACACATATATATATATA [CACACA_site8345]”, for which the “gcPBM binding intensity (ln)” value stood at 9.07. With “ATAATATAAATACAAACACACAATTGTGTCCACATT [CACACA_site6920]” the figure was 6.99; with “TTTTTATTTAATAGTTGTACATTGAAAAATATGTAT [XGTACX_site3025]”, 7.06.

“TGATTAAATAAATATATATATTTATATATTATACAG [CACACA_negctrl_site1596]”: the “gcPBM binding intensity (ln)” value was 7.04. With “GCTCTATCAAAAAAATGTACACATATTATCATTCAT [XGTACX_site143]” the figure was 7.15.

For “CAAATAAATATTAAAAGTACACACAGATACACTAAT [XGTACX_site3749]”, the “gcPBM binding intensity (ln)” value turned out to be 7.03. For “ATAATTTATTTTAAAAGTACTCAATTTGCTTTTCTC [XGTACX_site5749]”, the “gcPBM binding intensity (ln)” value was 6.85. “ACCCATAAAAATTATGCACACTTAATAAAGCGAAAT [CACACA_site5722]”: the “gcPBM binding intensity (ln)” value worked out at 7.69. With “TCCTCATTTTATCATACACACTTGTTTATATGGGTG [CACACA_site4650]” the figure was 6.96; with “TTTACAAAAAATTATACACACACGTACAGATAAATA [CACACA_site4678]”, 7.34. With “TATATTTATTATAATTGTACATAAAATAAACTAAGA [XGTACX_site4318]” the figure was 7.16; with “AAATAATTAAACATATGTACATATTATATATATATA [XGTACX_site6774]”, 8.97. With “AATATTTATATTTAGTGTACAGAAATAAAAAAAAAA [XGTACX_site6066]” the figure was 7.15; with “CAAAAAAAAAAAAAAACACACATTAAATTAGAAAGA [CACACA_site7271]”, 6.59; with “ATATACATTTAAATGTGTACATAATAAAATAAAAAA [XGTACX_site8170]”, 7.33.

Take “GCTAATTTATTTTGCAGTACATATATAATAATATAT [XGTACX_site478]”: the “gcPBM binding intensity (ln)” value was found to be 6.89. Take “ATGTTTTATAAAAGGCGTACACATATGCTTAAGTAA [XGTACX_site6232]”: the “gcPBM binding intensity (ln)” value is 7.33.

Consider “CCTTTATTTTATATGTGTACTAAATTGTATATATAT [XGTACX_site8717]”, for which the “gcPBM binding intensity (ln)” value is 7.59.

For the sequence “CTGAAGGAAAAAGAAAGTACTTTTTTTTTTTTGAAG [XGTACX_site5973]”, the “gcPBM binding intensity (ln)” value was determined as 6.8. For “AAAAAAAAAATATCATGTACAAATATAATAAAATTT [XGTACX_site3896]”, the “gcPBM binding intensity (ln)” value came to 6.69. For the sequence “TATAGCAAAAAATTTACACACATGTTTTTTCTATAC [CACACA_site325]”, the “gcPBM binding intensity (ln)” value was 6.79.

For “GGCATTTTATGAAGTAGTACCATAAATATTAAAGAT [XGTACX_site5287]”, the “gcPBM binding intensity (ln)” value was 7.32.

The values above are taken from the supplement of paper PMC11417369.
